PMC4336329 (PLoS ONE, 2015)
Out of some 310,000 compounds screened, about 14,000 (4.5%) showed an effect of 50% or more. Effects have a minus sign here. The list shows a part of the results.

molecular target: human ether-à-go-go-related gene (hERG) potassium channel (human, UniProt Q12809); experiment: primary screen, population patch clamp on CHO cells stably expressing hERG
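Further: peak tail current of the secondary pulse compared with the same well before compound.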

Chain of human ether-à-go-go-related gene (hERG) potassium channel (Q12809 whole entry, looked up): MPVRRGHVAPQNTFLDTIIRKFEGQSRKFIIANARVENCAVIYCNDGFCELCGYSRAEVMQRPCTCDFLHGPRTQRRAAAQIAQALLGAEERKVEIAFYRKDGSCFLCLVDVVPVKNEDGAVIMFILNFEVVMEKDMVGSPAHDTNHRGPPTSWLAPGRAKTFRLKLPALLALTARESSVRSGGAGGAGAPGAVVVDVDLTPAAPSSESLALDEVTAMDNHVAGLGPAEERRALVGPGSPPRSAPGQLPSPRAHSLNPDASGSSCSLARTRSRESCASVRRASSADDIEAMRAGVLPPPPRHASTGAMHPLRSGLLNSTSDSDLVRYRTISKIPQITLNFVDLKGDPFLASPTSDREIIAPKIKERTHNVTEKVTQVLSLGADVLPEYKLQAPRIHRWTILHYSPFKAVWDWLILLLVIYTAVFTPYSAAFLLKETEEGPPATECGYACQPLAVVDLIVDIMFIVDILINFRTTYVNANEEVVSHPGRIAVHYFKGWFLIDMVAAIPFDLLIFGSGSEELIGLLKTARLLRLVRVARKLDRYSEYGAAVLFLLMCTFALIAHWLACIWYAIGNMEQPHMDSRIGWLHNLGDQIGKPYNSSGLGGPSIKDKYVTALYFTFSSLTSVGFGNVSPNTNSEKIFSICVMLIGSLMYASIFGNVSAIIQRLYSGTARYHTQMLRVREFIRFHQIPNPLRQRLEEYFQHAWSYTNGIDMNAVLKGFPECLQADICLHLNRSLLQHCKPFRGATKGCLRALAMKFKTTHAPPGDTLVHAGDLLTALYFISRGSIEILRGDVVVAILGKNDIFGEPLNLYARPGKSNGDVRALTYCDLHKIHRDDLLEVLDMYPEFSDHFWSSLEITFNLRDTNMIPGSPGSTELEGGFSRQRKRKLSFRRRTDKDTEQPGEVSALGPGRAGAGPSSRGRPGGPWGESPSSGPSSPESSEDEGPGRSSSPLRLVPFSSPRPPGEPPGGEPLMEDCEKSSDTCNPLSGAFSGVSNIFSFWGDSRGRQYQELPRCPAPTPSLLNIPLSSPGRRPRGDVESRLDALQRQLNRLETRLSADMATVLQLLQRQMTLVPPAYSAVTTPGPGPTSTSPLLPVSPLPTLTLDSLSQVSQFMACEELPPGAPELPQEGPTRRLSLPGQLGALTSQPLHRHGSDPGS

Row | Compound | hERG current change (%, negative = inhibition) at 10uM [%]
1 | COc1ccc(S(=O)(=O)NC(C)C(=O)Nc2cccc(C(C)=O)c2)cc1 (centres unmarked) | 0.77
2 | CC1CC(C)(C)NC(=S)N1CCCC(=O)Nc1ccc2c(c1)OCCO2 (centres unmarked) | -4.4
3 | COc1ccc(NC(=O)CN2CCc3ccccc3C2)cc1S(=O)(=O)N1CCOCC1 | -15.4
4 | CCN1C(=O)[C@H]2[C@@H](c3ccc(C)cc3)N3C(=O)N(c4ccc(OC)cc4)C(=O)[C@@]3(C)[C@H]2C1=O | 10
5 | CC1=NN(C(N)=S)C(=O)C1N=Nc1ccc(Cl)cc1 (centres unmarked) | 1.83
6 | COC(=O)CCNC(=O)c1nn(Cc2ccccc2)c(=O)c2ccccc12 | -9.37
7 | CCOc1ccc(Nc2nc(N)c3ccccc3n2)cc1.Cl | -41.8
8 | COCCn1c(SCc2cc(=O)n3cc(C)ccc3n2)nc2ccccc2c1=O | 13.7
9 | O=C(N/N=C/C=C/c1ccccc1[N+](=O)[O-])c1cc(-c2ccccc2)n[nH]1 | -8.06
10 | CC(CC(=O)Nc1ccc2c(c1)OCO2)c1ccccc1 (centres unmarked) | 5.62
11 | Cc1cc(N2CCN(C)CC2)nc2ccc(NC(=S)NCCC(C)C)cc12 | -51.2
12 | C/C(=C1/SC(=S)N(CCC(=O)O)C1=O)c1ccc(O)cc1 | 9.74
13 | N#Cc1cccc(NC(=O)Nc2cccs2)c1 | 20.2
14 | O=C(c1ccccc1)N1CCN(Cc2cccc(Oc3ccccc3)c2)CC1 | -50.1
15 | CCOc1ccc(NC(=O)NC(C)c2ccc3c(c2)OCO3)cc1 (centres unmarked) | 21.3
16 | CCCn1nc(C(=O)NNC(=O)CCCOc2ccc(OC)cc2)c2ccccc2c1=O | -8.53
17 | O=C(CN1C(=O)c2ccccc2C1=O)Nc1ccc(-c2nc3ccccc3o2)cc1 | -6.56
18 | COc1ccc([C@H]2CC(=O)C=C(c3ccc(Cl)c(Cl)c3)C2)cc1 | 8.22
19 | Cc1ccc(N(CC(=O)Nc2cc(C)cc(C)c2)S(=O)(=O)c2cccc3nonc23)cc1 | -6.51
20 | CCC1=Nc2cc(C(=O)NCCCOC(C)C)ccc2Sc2ccccc21 | -13.3
21 | CCc1ccccc1NC(=O)CCN1C(=O)C2CC=CCC2C1=O (centres unmarked) | 18.3
22 | CO[C@H]1[C@@H](OC)CC(OC2OC(CO)C(O)C(O)C2O)/C(=C\C#N)[C@@H]1O (some centres unmarked) | 25.1
23 | O=C(O)C(=O)O.O=C(c1ccco1)N1CCN(Cc2cccnc2)CC1 | 0.76
